# Reference: PubChem BioAssay (NCI)
# Several values for one entry are separate records, joined by “and”; a condition that tells them apart may be missing. Equal values may be shown once.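 Exposure lasted 48 hours, with cells grown in 96-well plates and compounds tested at five concentrations. GI50 marks 50% less growth. The concentration for full growth arrest is given as TGI.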
# Tested on: NCI-H322M lung
# Assay: DTP human tumour cell line panel, 48 h
Compound,TGI,GI50
CCCSC1=N/C(=C\c2ccco2)C(=O)N1,> 100 µM,–
O=C1c2sccc2C(=O)c2c(CO)csc21,20.5 µM,–
O=CC12CCCN1CCC2,> 100 µM,–
O=C1OC(c2ccccc2)=N/C1=C\c1ccc(N(CCCl)CCCl)cc1,> 100 µM,–
CCC(=C(c1ccc(OCCN(CC)CC)cc1)c1ccc(OCCN(CC)CC)cc1)c1ccc(Cl)cc1,1.08 µM,0.562 µM
Clc1ccc(N=CNc2ccc(-c3nc4ccccc4[nH]3)cc2)cc1,> 100 µM,0.916 µM
COc1ccc(C[C@H](N)C(=O)N[C@@H]2[C@@H](CO)OC(n3cnc4c(N(C)C)ncnc43)[C@@H]2O)cc1 (stereo partly drawn),1.49 µM,–
O=C(/C=C/c1ccc(OCC(=O)N2CCN(c3ccccc3)CC2)cc1)c1ccccc1,> 89.6 µM,–
O=[N+]([O-])c1cccc(C2=NOC3CCCC23)c1 (stereo not drawn),> 100 µM,–
Cc1c(-c2ccc(N3CCc4cccc(C(=O)Nc5nc6ccccc6s5)c4C3)nc2C(=O)O)cnn1CC12CC3CC(CC(C3)C1)C2,18.3 µM,4.2 µM
COc1cc(COC(=O)NC(Cc2cccs2)C(=O)O)c([N+](=O)[O-])cc1OC (stereo not drawn),> 100 µM,–
CC(=O)OCc1cc2c(s1)C(=O)c1sccc1C2=O,1.71 µM,–
O=C(Nc1ccccc1)Oc1ccccc1C1CCCCC1,88.9 µM,–
CNC(=O)N(C)C(=O)c1ccccc1C(=O)N(C)C(=O)NC,> 10 µM,–
CC(=O)Oc1c(OC(C)C)cc(=O)n2ccsc12,> 100 µM,–
NS(=O)(=O)c1cc2c(cc1Cl)NC(C(=O)NNC(=O)c1ccncc1)=NS2(=O)=O,> 100 µM,–
CS(=O)(=O)Nc1ccc(Nc2c3ccccc3nc3cc(Cl)ccc23)cc1,18 µM,4.58 µM
CCOC(=O)N/N=C(/N)Cc1ccc(Cl)cc1,> 100 µM,–
Cc1c2cc[n+](C)cc2c(C)c2c1[nH]c1ccc(Oc3ccccc3)cc12,> 100 µM and 29.2 µM,18.1 µM and 5.61 µM
FC(F)(Sc1nc2ccccc2[nH]1)c1nc2ccccc2o1,> 100 µM,–
OCCn1c(-c2ccncc2)c(-c2ccc(F)cc2)c2ncccc21,> 25 µM,> 25 µM

Compound,TGI,GI50
CC(=O)OC1C(C)OC(OC2C[C@](O)(C(C)=O)Cc3c(O)c4c(c(O)c32)C(=O)c2ccccc2C4=O)C(F)C1OC(C)=O (stereo partly drawn),13.2 µM,–
CCOC(=O)C1=C(O)c2c(OC)ccc(OC)c2C(=O)C1=O,> 100 µM,–
Oc1ccc(/C=N/Nc2nnc(N/N=C/c3ccc(O)cc3O)c3ccccc23)c(O)c1,4.6 µM,0.424 µM
ClCc1ccc(Cn2cnc3nc(Cl)nc(Cl)c32)cc1,2.56 µM,1.13 µM
CCOC(=O)c1c(SCCN(CC)CC)n(-c2ccccc2)c(=S)n(-c2ccccc2)c1=O,32.4 µM,–
CCOP(=O)(OCC)/C(C#N)=C(\C)c1ccco1,> 10 µM,–
COc1ccc(OC)c2c(Nc3ccc(S(=O)(=O)O)c4cc(S(=O)(=O)O)cc(S(=O)(=O)O)c34)cc(C)nc12,> 100 µM,–
O=C(C[N+]1(c2ccccc2)CCOCC1)c1ccccc1,> 100 µM,–
Cc1nc(-c2cccnc2)sc1C(=O)/C=C/c1ccc(Cl)cc1Cl,> 100 µM,–
Nc1nc(N)c2ncn(Cc3ccccc3)c2n1,> 100 µM,–
C[C@@H](c1ccccc1)N(CC#N)[C@H]1CCC[C@]1(O)/C=C/c1ccc2c(c1)OCO2,> 25 µM,–
NNC(=O)COc1nc(-c2cccs2)nc2ccc(I)cc12,44.1 µM,–
CCCCSC1=N/C(=C\c2ccccc2O)C(Cl)=N1,> 100 µM,–
CN(C)C(=O)c1cc2cnc(Nc3ccc(N4CCNCC4)cn3)nc2n1C1CCCC1,> 100 µM,17.8 µM
Clc1cc2ncn(C3CCCO3)c2cc1Cl (stereo not drawn),> 100 µM,–
N#Cc1c2c(c(Nc3ccc(Cl)cc3)n3c1nc1ccccc13)CCCC2,> 100 µM,–
N/N=C(\N)SCc1ccc(N=C=S)cc1,> 100 µM,–
COc1cc(CC2C(=O)OCC2Cc2ccc(OC)c(OC)c2)ccc1O (stereo not drawn),> 100 µM,–
O=C1C(=O)c2c(ccc3ccccc23)-c2ccccc21,15.2 µM,3.17 µM
CCCCCCCCCCCCCCCC(=O)OCC(COP(=O)(O)OCCNC(=O)CCSSc1ccccn1)OC(=O)CCCCCCCCCCCCCCC (stereo not drawn),> 100 µM,–
N#Cc1c(N/N=C/c2c(Cl)cccc2Cl)nc(N)nc1N1CCCC1,> 100 µM,8.18 µM

Compound,TGI,GI50
O=C1Cc2c([nH]c3c(Br)cccc23)-c2ccccc2N1,> 100 µM,–
COC(=O)C1=C(C)C(=O)C2(CCCCCC2C(=O)OC)C1 (stereo not drawn),> 100 µM,–
Nn1c(=S)[nH]nc(/C=C/c2c(O)ccc3ccccc23)c1=O,42 µM,–
COc1ccc(-c2cc(=O)c3cc(OC)c(OC)cc3[nH]2)cc1OC,> 100 µM,–
COC(=O)C1CCC(=S)N1C(C)=O (stereo not drawn),> 100 µM,–
COC(=O)/C(=C/c1ccc(OC)cc1)c1cc(OC)c(OC)c(OC)c1,> 100 µM,–
COc1ccc(-c2ccc(/C=N/n3c(COc4ccc(Cl)c(C)c4)nn(CN4CCOCC4)c3=S)o2)c([N+](=O)[O-])c1,97.7 µM,24.6 µM
CCc1c[nH]c2ncnc(N3CC[C@](N)(CNC(=O)c4ccc(F)cc4F)C3)c12,> 100 µM,28.5 µM
COC(=O)CCSC(=O)Nc1ccccc1Cl,> 100 µM,–
CCN(CCCl)c1ccc(NC(=O)c2cc(C(=O)NCCN(C)C)cc(C(=O)Nc3ccc(N(CC)CCCl)cc3)c2)cc1,32.4 µM,–
CCCCc1c2c(nc3c1CC/C(=C\c1ccccc1)C3=O)CCCC2,29.3 µM,–
CCCCCNC(=O)OC1CCn2c1nc1c2C(=O)C(C)=C(N2CC2)C1=O (stereo not drawn),4.62 µM,–
Cc1c(C(=O)C/C(=N/NC(=O)CC#N)C(N)=O)[n+](=O)c2ccccc2n1[O-],> 100 µM,–
C/C(=N\NC(=O)c1ccncc1)c1ccccc1O,> 100 µM,2.06 µM
COc1ccc(Sc2ccccc2[N+](=O)[O-])cc1,> 100 µM,–
CO/C(N)=C(\C#N)N=Cc1cccs1,> 100 µM,–
COc1ccc(S(=O)(=O)NCCCNc2nccc(-c3c(-c4ccc(F)cc4)nc4sccn34)n2)cc1,> 100 µM,14.5 µM
O=C(NCc1cccnc1)c1ccc([N+](=O)[O-])o1,7.62 µM,2.97 µM
COc1ccc(Cl)cc1Nc1nc(C(F)(F)F)ccc1C(=O)N/N=C/c1ccc(Cl)cc1,32.3 µM,0.31 µM
O=C1Cc2c(-c3ccccc3)cc(-c3ccc(Cl)cc3)nc2-c2ccccc2N1,24.6 µM,–
Cc1cc2c(=O)cc(-c3ccncc3)oc2c(C(=O)O)c1C,> 100 µM,–

Compound,TGI,GI50
CC(C)c1nc(Cl)c(Cl)c(Cl)n1,22.6 µM,–
CC(C)(C)OC(=O)NCCCCC1NC(=O)[C@@H]2Cc3c([nH]c4ccccc34)C(c3ccccc3)N2C1=O (stereo partly drawn),> 100 µM,–
COc1ccc(NC(=S)Nc2cccc(C)n2)cc1,> 100 µM,–
CCOC(=O)c1c(/C=N\Nc2ccccc2)nc2ccccc2c1-c1ccccc1,> 100 µM,–
Cc1cc(N(CCCl)CCCl)ccc1/C=N\NC(=O)c1cccnc1,> 100 µM,> 100 µM
Cc1ccc(C)c(C(=O)CC2OC(O)C(Cl)C2Cl)c1 (stereo not drawn),> 100 µM,–
CCN(CC)CCCNc1nnc(C)c2[nH]c3ccccc3c12,52.2 µM,–
CCNc1nc(-c2ccc(Cl)c(OC)c2)c(-c2ccnc(NCCNS(=O)(=O)c3ccc(Cl)cc3)n2)s1,> 100 µM,5.23 µM
Cn1c(=O)c2c(n(C)c1=O)n1c(=O)c3ccccc3nc1n2C,> 100 µM,–
O=C(c1ccccc1)c1ccc(N2C(=O)C3C4c5ccccc5C(/C=C/C(=O)c5ccccn5)(c5ccccc54)C3C2=O)cc1 (stereo not drawn),> 100 µM,5.75 µM
O=C(NCc1ccc(Cl)c(Cl)c1)c1nc2ccccc2nc1NCc1ccc(Cl)c(Cl)c1,> 100 µM,–
Cc1c(Cl)cc(C(C)(C)C)c(O)c1Cc1c(C)c(Cl)cc(C(C)(C)C)c1O,7.51 µM,–
CC(C)C12CCC3(CCC4C(C)(C(=O)O)CCCC4(C)C3C1)C(CN)C2 (stereo not drawn),> 100 µM,–
Cc1ccc(S(=O)(=O)NCc2cccc([N+](=O)[O-])c2)cc1,> 100 µM,–
CCOC(=O)NC/C=C/CO,> 100 µM,–
N#Cc1c(N)n(-c2nc3ccccc3s2)c(=O)c2cc([N+](=O)[O-])ccc12,> 82.6 µM,–
Cc1cc(NS(=O)(=O)c2ccc(NC(NC(=O)OC(C)C)(C(F)(F)F)C(F)(F)F)cc2)nc(C)n1,> 100 µM,–
Cn1ncc2c(c1=O)Nc1ccccc1S2(=O)=O,> 100 µM,–
Cn1c(=O)c(Oc2ccc(F)cc2F)cc2cnc(NC3CCC(O)CC3)nc21 (stereo not drawn),> 25 µM,> 25 µM
